No constants are given. Whether binding was seen depends on the method and setting. Some binding calls cover weakened binding; strength is not graded here.

Protein sequences, listed by entry. Tags and fused reporters are not part of them. Residues count along the entry.
UniProt P26045: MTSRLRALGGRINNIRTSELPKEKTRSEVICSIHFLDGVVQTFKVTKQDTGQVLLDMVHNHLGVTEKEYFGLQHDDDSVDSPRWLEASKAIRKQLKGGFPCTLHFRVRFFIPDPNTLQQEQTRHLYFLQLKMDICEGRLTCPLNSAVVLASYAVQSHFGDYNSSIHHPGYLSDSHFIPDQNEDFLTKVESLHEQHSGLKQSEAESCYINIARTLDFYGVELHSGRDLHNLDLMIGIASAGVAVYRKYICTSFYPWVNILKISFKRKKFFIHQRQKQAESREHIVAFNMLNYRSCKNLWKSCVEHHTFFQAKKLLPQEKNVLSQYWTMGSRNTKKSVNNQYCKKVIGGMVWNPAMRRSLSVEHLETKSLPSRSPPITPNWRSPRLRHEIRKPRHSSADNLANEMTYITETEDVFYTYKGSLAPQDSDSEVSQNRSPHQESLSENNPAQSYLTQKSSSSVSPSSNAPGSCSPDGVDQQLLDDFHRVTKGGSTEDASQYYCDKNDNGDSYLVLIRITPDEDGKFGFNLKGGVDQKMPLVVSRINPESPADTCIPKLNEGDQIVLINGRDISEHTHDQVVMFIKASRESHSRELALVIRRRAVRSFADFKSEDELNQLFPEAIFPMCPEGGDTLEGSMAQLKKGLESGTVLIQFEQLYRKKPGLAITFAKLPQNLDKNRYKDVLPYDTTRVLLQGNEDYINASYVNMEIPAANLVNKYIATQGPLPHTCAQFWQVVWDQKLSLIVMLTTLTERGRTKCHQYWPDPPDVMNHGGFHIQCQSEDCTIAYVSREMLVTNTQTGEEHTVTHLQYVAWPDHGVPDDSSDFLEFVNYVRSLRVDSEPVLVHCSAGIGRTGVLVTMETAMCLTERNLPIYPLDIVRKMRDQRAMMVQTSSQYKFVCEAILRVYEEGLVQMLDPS
B42_E6AP 406–595 (Q05086, residues 406-595): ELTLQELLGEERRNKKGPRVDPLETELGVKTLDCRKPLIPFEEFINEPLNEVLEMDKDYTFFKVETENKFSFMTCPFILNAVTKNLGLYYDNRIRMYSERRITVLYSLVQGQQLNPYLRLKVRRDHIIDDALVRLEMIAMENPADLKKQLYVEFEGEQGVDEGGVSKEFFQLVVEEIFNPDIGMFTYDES
B42_E6AP 406–561 (Q05086, residues 406-561): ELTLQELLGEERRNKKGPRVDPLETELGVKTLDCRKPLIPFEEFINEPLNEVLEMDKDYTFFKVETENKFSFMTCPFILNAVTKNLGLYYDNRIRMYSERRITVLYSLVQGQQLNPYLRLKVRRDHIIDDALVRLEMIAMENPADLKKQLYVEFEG

The target of this test is T1, LexA_11E6_WT (human papillomavirus 11) (UniProt P04019).
T1 sequence: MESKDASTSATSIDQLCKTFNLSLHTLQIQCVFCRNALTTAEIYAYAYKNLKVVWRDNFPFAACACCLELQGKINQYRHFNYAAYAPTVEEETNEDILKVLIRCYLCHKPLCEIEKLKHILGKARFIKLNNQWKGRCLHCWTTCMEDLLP
Put plainly: two-hybrid; yeast; LexA DNA binding domain fused to E6 proteins (bait) mated to yeast with B42 (or Gal4) transactivator fusions of E6AP constructs or PTPN3 (prey); LexA-responsive lacZ reporter, dark XGAL patch.
In the case of “Gal4 (G4) transactivator fused PTPN3 (from UniProt P26045 1-913)”, the binding result is listed as “no binding”.
Consider “B42_LQELS (from UniProt Q05086 406-417) (peptide)”, for which the binding entry was “no binding”.
On to “B42_E6AP 406–561 (from UniProt Q05086 406-561) (domain or fragment)”, for which the binding entry was “no binding”.
To “B42_LQELL (from UniProt Q05086 406-417) (peptide)” belongs “no binding”.
With “B42_E6AP 406–595 (from UniProt Q05086 406-595) (domain or fragment)”, the binding result is recorded as “binds”.

(Values after publication PMC6999913.)
